Here are results for two molecules from patent US20260209301A1, “Galanin-2 Receptor Agonists” (LIFEARC, priority 2022, published 2026).

Holding throughout (test): cell-based or functional assay
In one test the target is human GalR1 (human) (UniProt P47211).
Test [1] concerns the target T1, mouse GalR2 (Mus musculus) (UniProt O88854).
T1 sequence (looked up): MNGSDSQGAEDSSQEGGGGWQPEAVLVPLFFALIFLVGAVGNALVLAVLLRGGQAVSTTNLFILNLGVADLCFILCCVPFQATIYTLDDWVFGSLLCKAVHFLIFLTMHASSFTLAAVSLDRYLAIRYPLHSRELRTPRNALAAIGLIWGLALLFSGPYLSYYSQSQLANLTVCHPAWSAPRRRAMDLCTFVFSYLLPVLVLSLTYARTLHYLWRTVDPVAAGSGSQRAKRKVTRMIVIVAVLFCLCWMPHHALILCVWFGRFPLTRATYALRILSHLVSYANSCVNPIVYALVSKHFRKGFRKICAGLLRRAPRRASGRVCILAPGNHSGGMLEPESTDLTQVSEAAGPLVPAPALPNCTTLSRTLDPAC

In test [2] the target is cynomolgus GalR2 (Macaca fascicularis).
Test [3] has as its target T2, rat GalR2 (Rattus rattus) (UniProt O08726).
T2 sequence (looked up): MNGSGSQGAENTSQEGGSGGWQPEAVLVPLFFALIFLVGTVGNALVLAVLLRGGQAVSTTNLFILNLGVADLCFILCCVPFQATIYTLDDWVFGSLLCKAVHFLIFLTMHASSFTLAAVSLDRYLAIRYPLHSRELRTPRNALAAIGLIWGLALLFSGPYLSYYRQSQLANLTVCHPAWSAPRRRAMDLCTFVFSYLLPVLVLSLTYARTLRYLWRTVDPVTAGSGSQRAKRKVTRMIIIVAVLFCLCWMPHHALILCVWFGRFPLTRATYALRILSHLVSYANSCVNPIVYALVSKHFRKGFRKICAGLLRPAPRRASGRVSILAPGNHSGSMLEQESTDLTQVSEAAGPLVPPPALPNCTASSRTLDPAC

Chain of UniProt P47211 (P47211 whole entry): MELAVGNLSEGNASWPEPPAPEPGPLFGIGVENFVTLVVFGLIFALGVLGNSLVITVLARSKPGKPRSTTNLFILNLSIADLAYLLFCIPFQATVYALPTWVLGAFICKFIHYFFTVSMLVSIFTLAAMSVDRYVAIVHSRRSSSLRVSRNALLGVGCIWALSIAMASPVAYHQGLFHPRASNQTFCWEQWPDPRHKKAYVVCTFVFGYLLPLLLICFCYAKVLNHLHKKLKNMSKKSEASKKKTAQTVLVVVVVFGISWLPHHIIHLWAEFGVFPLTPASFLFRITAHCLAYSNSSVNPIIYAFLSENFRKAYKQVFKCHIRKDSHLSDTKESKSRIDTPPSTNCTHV

B1: Gal2-12FC (Fc fusion)
chain: WTLNSAGYLLGAEAAAKEAAAKAL[human IgG1 Fc with C220S (EU numbers) not spelt out]
In turn, B1 showed a cAMP assay activity (quantity not given) with human GalR1 (human) of 5.4. Besides, the values for the calcium assay activity (quantity not given) in test [1], in test [2] and in test [3] were 6.8, 7.7 and 6.6, respectively.

B2: Gal2-30FC (Fc fusion)
chain: WTLNSAGYLLGPHAVGNHRSFSDKNGLTSAEAAAKEAAAKAL[human IgG1 Fc with C220S (EU numbers) not spelt out]
In the test with human GalR1 (human), B2 gave a Beta Arrestin IA (%) of 42.8%, a cAMP IA (%) of 80.2%, a cAMP assay activity (quantity not given) of 7 and a cAMP pEC50 of 7 pEC50. Also, the calcium assay activity (quantity not given) in test [1] was 7. In test [2], the calcium assay activity (quantity not given) stood at 8.4.
